Measurements from the supplement of paper PMC3334620.
The full ranking holds about 33,000 sequences; the median of “E-score (-0.5 to 0.5)” is about -0.035, and the highest 2% start at about 0.35. This is one part of the list.

These sequences were tested against T1, Pdr3 (UniProt P33200) (assay: PBM E-score (8-mer binding enrichment) (E-score (-0.5 to 0.5)); higher = stronger / more preferred TF binding; most listed sequences are background and not binding sites). Settings: protein concentration: 200 nM; construct: GST-full length.
T1 sequence: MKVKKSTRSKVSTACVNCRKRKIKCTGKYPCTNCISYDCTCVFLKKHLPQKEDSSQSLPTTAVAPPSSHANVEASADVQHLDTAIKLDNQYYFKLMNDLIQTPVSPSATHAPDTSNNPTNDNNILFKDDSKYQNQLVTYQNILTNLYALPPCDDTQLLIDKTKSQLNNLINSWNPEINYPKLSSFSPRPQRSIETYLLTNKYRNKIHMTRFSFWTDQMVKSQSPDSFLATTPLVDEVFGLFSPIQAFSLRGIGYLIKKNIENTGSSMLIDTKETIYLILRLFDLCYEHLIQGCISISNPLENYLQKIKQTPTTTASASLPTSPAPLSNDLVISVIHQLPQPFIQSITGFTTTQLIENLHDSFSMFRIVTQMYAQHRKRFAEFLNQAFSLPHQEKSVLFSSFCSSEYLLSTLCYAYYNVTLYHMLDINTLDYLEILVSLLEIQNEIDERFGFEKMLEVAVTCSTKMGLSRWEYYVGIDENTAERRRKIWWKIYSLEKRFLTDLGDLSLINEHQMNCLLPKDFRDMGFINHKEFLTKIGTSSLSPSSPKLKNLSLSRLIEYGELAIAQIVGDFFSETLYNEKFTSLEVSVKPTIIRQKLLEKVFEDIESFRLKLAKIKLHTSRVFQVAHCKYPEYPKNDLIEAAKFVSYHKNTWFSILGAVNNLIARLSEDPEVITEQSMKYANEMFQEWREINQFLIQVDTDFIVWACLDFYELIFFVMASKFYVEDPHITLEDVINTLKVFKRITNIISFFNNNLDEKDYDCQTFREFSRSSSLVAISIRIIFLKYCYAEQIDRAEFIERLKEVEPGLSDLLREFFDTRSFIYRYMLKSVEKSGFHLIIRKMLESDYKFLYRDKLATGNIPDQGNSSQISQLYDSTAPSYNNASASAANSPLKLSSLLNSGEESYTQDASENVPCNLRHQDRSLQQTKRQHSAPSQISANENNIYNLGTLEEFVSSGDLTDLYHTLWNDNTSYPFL
Method in brief: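 Detection of bound protein used fluorescent anti-GST, with scans normalised by masliner. The proteins were GST-tagged yeast transcription factors applied at about 100-200 nM to universal all-10-mer Agilent arrays made double-stranded by primer extension. Each ungapped eight-base word, pooled with its reverse complement, was scored with an E-score from the Universal PBM Analysis Suite.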

| Sequence | PBM E-score |
| --- | --- |
| GACTCAAA | -0.197 |
| CCCTCGTC | 0.0176 |
| CGTCCTGA | -0.113 |
| CTCAAAAC | -0.118 |
| CGGGATGA | 0.369 |
| CAGTTTAG | -0.233 |
| CAAACCTC | -0.206 |
| GTGGCTGA | 0.0919 |
| GTAGGGAA | -0.00713 |
| GTCTTACA | -0.255 |
| ACAGCTTC | -0.143 |
| CAAAACCA | -0.0341 |
| GAATCTTA | 0.0385 |
| ATAAGTGC | -0.105 |
| GATTCACA | -0.103 |
| AAAACCTG | -0.197 |
| GTCTCAAA | -0.115 |
| AACGTTAT | -0.106 |
| ATTGCGGG | 0.228 |
| CCGGATCG | 0.391 |
| ACGTAACT | -0.363 |
| CTCATTCC | 0.356 |
| ACATACCA | -0.0697 |
| GGTCGGGA | 0.283 |
| CGCATGGC | 0.158 |

| Sequence | PBM E-score |
| --- | --- |
| GAAAGACA | 0.0212 |
| CGGCAATC | 0.299 |
| AGTATTTG | -0.277 |
| GATGACGC | -0.0417 |
| AGAGCAAC | -0.197 |
| GTGTGCCA | -0.147 |
| CTGTGAGA | -0.158 |
| AAGCGCTC | -0.00902 |
| ATTCCTAC | -0.0807 |
| AAGTCAAT | -0.134 |
| ATTATCCG | 0.388 |
| AGTCACGA | -0.132 |
| CGTTACTA | -0.223 |
| CCGGAGGC | 0.292 |
| CTCTCACA | 0.00281 |
| CGTTCTGA | -0.128 |
| GCAGTTCA | -0.135 |
| AGAACTCG | -0.0518 |
| CAGGTTTC | 0.03 |
| CCGGGTTA | 0.353 |
| AAGACCGA | 0.0803 |
| AGCGCTAT | 0.134 |
| CCACCCAC | -0.0558 |
| AGTGAGGC | 0.0166 |
| GCCTGCTA | -0.111 |

| Sequence | PBM E-score |
| --- | --- |
| AGCACGAA | 0.0983 |
| CTTATGCA | -0.231 |
| GTAAGTAC | 0.0168 |
| AGGTTCTC | 0.0533 |
| CTTCGGCA | 0.153 |
| ACCAAATC | 0.031 |
| AGATTACC | 0.0293 |
| GAGACTTA | -0.319 |
| AGCCATAA | -0.143 |
| AGACATCC | 0.0233 |
| CTCCATGA | -0.0454 |
| AAGCGTAA | -0.111 |
| TCAAACGA | -0.15 |
| GACATATA | 0.0101 |
| CATTTTAC | 0.141 |
| ATTCATTC | 0.135 |
| AGGCCCCT | -0.241 |
| TACTGCGA | -0.1 |
| CACGGACA | 0.355 |
| ACGAGTTA | -0.116 |
| CCCCAAGA | -0.154 |
| GCAGCTTA | -0.121 |
| CGCTATTC | 0.105 |
| AATGCCTC | -0.142 |
| CAGCCGTC | 0.134 |

| Sequence | PBM E-score |
| --- | --- |
| ATTGTATG | -0.051 |
| TAGTAACA | -0.00956 |
| AAATTGTA | -0.0156 |
| CCTCCCAC | -0.0847 |
| TAATGGTA | -0.146 |
| TAATTGCA | 0.0881 |
| ATACCGCC | 0.212 |
| ATCTGGCC | 0.0154 |
| GTCTTGTA | -0.206 |
| GTCTAGAC | -0.293 |
| ACTTACCC | 0.0368 |
| CCTGATGA | 0.0476 |
| AAGAATCG | 0.132 |
| GACAACGC | -0.0869 |
| ACTTCGTA | -0.166 |
| AGCGTCAG | -0.239 |
| GTAAGCTA | 0.0325 |
| CAAACAAC | 0.0713 |
| ATAAACCC | 0.0891 |
| ACTTCTGA | -0.109 |
| ACTACCTC | -0.108 |
| CCCACACA | -0.0792 |
| ACGACCTG | -0.304 |
| TAAGCCGA | 0.0963 |
| AAGTGAGC | -0.129 |

| Sequence | PBM E-score |
| --- | --- |
| GGGGATGA | 0.0246 |
| AACTCCTT | -0.0186 |
| GAGTCATC | 0.00177 |
| CTGGATGC | -0.212 |
| CCGTTGCA | 0.0645 |
| ACGTGCAG | -0.0936 |
| GTTATGAA | -0.131 |
| CAATTGAA | -0.0875 |
| ACCTACCG | -0.0917 |
| CGCTGAAG | 0.0229 |
| ACCTCGCG | 0.0282 |
| CTCTTTGA | -0.245 |
| ATCAATTG | 0.0139 |
| GCCACCCA | -0.078 |
| ATGAAGGA | -0.0858 |
| GACAGAAC | 0.0194 |
| CTGCAAGA | -0.0813 |
| ATAACCAT | -0.0749 |
| ACCCCATG | -0.0104 |
| GCTCCATA | -0.0492 |
| CGTGCTCC | 0.259 |
| ATTATCGG | 0.17 |
| GGGAGTCA | -0.166 |
| ACCCCGGG | 0.376 |
| AGAGTCCA | -0.0906 |

| Sequence | PBM E-score |
| --- | --- |
| ATTCGGTG | -0.0461 |
| AAGCTACT | -0.124 |
| CTACCGGC | -0.0343 |
| ACCTTGCG | 0.0636 |
| CAAAGAAA | -0.112 |
| GACTGACA | -0.0824 |
| GACTCTCC | -0.0131 |
| AAATCCGT | 0.246 |
| AACAGCTC | 0.00466 |
| GCGCCCCA | 0.145 |
| AGGAAATG | -0.0576 |
| TAAGTAAA | -0.213 |
| AACCGCCT | 0.167 |
| ACGATTAT | 0.174 |
| AGCAGGTG | -0.0137 |
| ATATGAAG | 0.0475 |
| CACTAGCC | 0.0786 |
| ATGTGCAA | -0.102 |
| CACAAAAA | 0.0906 |
| AAAGTTAG | 0.0776 |
| ATGTCGCC | -0.0448 |
| CATACCAG | -0.0428 |
| GCTGGTTA | -0.123 |
| ACTGTACG | -0.224 |
| CAAGCCAG | -0.185 |

| Sequence | PBM E-score |
| --- | --- |
| AGCCTATC | -0.154 |
| CAAATGGA | -0.0634 |
| CCGTACAA | -0.00282 |
| CGAGCCAG | 0.206 |
| ATAACGTG | -0.107 |
| ACACTGGT | -0.211 |
| AATCCACC | -0.0507 |
| CAGTTGCG | 0.0668 |
| AAGCTAAA | -0.187 |
| ACAGTTTG | 0.00196 |
| ATTTTGAG | -0.0977 |
| CGGTCACC | 0.0786 |
| AGCGGGCA | -0.048 |
| ACTATACA | -0.0136 |
| CGAGGGTA | -0.0561 |
| TAATATGA | 0.114 |
| CGTAATGA | -0.131 |
| ATAAGGAT | -0.118 |
| ACAGCTTA | -0.166 |
| CTTGAAGA | -0.267 |
| ATTGCGTA | -0.191 |
| AAGTGGCC | 0.0392 |
| AAGTACTA | 0.0806 |
| AATGACGT | -0.0588 |
| ATAGCTAT | -0.0482 |

| Sequence | PBM E-score |
| --- | --- |
| CATCCGCG | 0.359 |
| TGATCCAA | -0.0351 |
| CGGCGTCC | 0.234 |
| CGAGCCCA | -0.112 |
| AGTCGCCC | -0.199 |
| ACCGCTAC | -0.0939 |
| AAGTCATT | -0.138 |
| CAATGAGC | -0.00488 |
| TATAAAAA | 0.0695 |
| AGAGGTAG | -0.21 |
| GCTGGTAA | -0.182 |
| CGGCATCA | 0.204 |
| CTCGAGAA | -0.149 |
| GTAAAACA | -0.231 |
| AGTAGTTA | -0.0357 |
| AGTCGGAT | 0.219 |
| CGCTATGA | -0.0676 |
| ATGCTAGG | -0.156 |
| AACTCTCC | 0.0377 |
| AGACATGC | -0.0916 |
| TGCGTGAA | 0.0465 |
| CGAAACAG | 0.0313 |
| CAGCTGTC | -0.105 |
| AGGTGCAT | -0.034 |
| GCTACCAC | -0.16 |

| Sequence | PBM E-score |
| --- | --- |
| AACACCGA | 0.14 |
| AAGGGGTA | -0.24 |
| ATGCATGA | 0.0809 |
| CTAGACTC | -0.324 |
| AAGCCTAA | -0.183 |
| ATACCGTC | 0.135 |
| AAGTCTCC | -0.0741 |
| CATGAGCA | 0.0587 |
| CAATTGTG | -0.131 |
| CGCAGATC | -0.0483 |
| CGACTACG | -0.0144 |
| CTGATACA | -0.132 |
| AGCCACAC | -0.0874 |
| AAACTCAT | 0.161 |
| CGGCGCCG | 0.463 |
| TAAACTCA | 0.0377 |
| CGAGTCAA | -0.19 |
| TAACATCA | -0.255 |
| ACCCAGGG | -0.0849 |
